Consider eight variants from the supplement of paper PMC12217912.

B1: TEV protease; numbered along this chain (parent)
chain: MGESLFKGPRDYNPISSSICHLTNESDGHTTSLYGIGFGPFIITNKHLFRRNNGTLVVQSLHGVFKVKDTTTLQQHLVDGRDMIIIRMPKDFPPFPQKLKFREPQREERICLVTTNFQTKSMSSMVSDTSCTFPSGDGIFWKHWIQTKDGQCGSPLVSTRDGFIVGIHSASNFTNTNNYFTSVPKNFMELLTNQEAQQWVSGWRLNADSVLWGGHKVFMVKPEEPFQPVKEATQL

Variants of B1 are the subject of the test. The test can be described thus: raw area under fraction-flipped curve 0-4 h after induction (AUC4h, not background-subtracted), DNA-recorder readout of cleavage of the substrate (dimensionless); higher = more cleavage of the substrate by the protease variant. Conditions: temperature: 34 °C; time window: 0-4 h after rhamnose induction. How it is done: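 In vivo DNA recorder in E. coli TOP10(DE3) ΔrhaA at 34 °C. Each TEVp single-site mutant (parent TEVp 0) is paired with a single-site variant of the 7-mer TEVs (canonical ENLYFQ|S). The substrate sits between flexible linkers in a Bxb1-sfGFP-TEVs-SsrA fusion, so cleavage stabilises Bxb1 and speeds flipping of a recombination array, read by NGS. The value is the raw area under the fraction-flipped curve over 0-4 h after rhamnose induction (AUC4h), with ≥20 reads per time point. It is not background-subtracted; inactive controls average about 0.047.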

Some of the results follow. Sequences were assembled here from the parent chain. Inactive controls read about 0.05.
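Further: Bxb1 expression induced with 0.2% (w/v) L-rhamnose at OD600 near 0.5, cultures sampled hourly, flipped fraction per protease–substrate barcode pair counted by paired-end Illumina sequencing.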

For MGESLFKGPRDYNPISSSICHLTNESDGHTTSLYGIGFGPFIITNKHLFRRNNGTLVVQSLHSVFKVKDTTTLQQHLVDGRDMIIIRMPKDFPPFPQKLKFREPQREERICLVTTNFQTKSMSSMVSDTSCTFPSGDGIFWKHWIQTKDGQCGSPLVSTRDGFIVGIHSASNFTNTNNYFTSVPKNFMELLTNQEAQQWVSGWRLNADSVLWGGHKVFMVKPEEPFQPVKEATQL [G63S], the “area with substrate ENLYFQA” value worked out at 0.0986, the “area with substrate ENLYFQC” value came to 0.126, the “area with substrate ENLYFQD” value was found to be 0.0587 and the “area with substrate ENLYFQF” value turned out to be 0.0671. Besides, the “area with substrate ENLYFQG” value is 0.0849, the “area with substrate ENLYFQI” value is 0.0665, the “area with substrate ENLYFQK” value stood at 0.0592 and the “area with substrate ENLYFQL” value is 0.0593. Also, the “area with substrate ENLYFQN” value turned out to be 0.0669, the “area with substrate ENLYFQP” value amounted to 0.0539, the “area with substrate ENLYFQQ” value stood at 0.0742 and the “area with substrate ENLYFQR” value turned out to be 0.057. The “area with substrate ENLYFQS” value is 0.0975, the “area with substrate ENLYFQT” value was 0.0591, the “area with substrate ENLYFQV” value turned out to be 0.0421 and the “area with substrate ENLYFQW” value came out at 0.0643. Moreover, the “area with substrate ENLYFQY” value amounted to 0.0736.

Turning to MGESLFKGPRDYNPISSSICHLTNESDGHTTSLYGIGFGPFIITNKHLFRRNNGTLVVQSLHGVFKVKDTTTLQQHLVDGRDMIIIRMPKDFPPFPQKLKFREPQREERICLVTTNFDTKSMSSMVSDTSCTFPSGDGIFWKHWIQTKDGQCGSPLVSTRDGFIVGIHSASNFTNTNNYFTSVPKNFMELLTNQEAQQWVSGWRLNADSVLWGGHKVFMVKPEEPFQPVKEATQL [Q118D], the “area with substrate ENLYFQA” value stood at 0.0957, the “area with substrate ENLYFQI” value was determined as 0.0532, the “area with substrate ENLYFQK” value is 0.0549 and the “area with substrate ENLYFQM” value came to 0.0765. The “area with substrate ENLYFQP” value came to 0.0756, the “area with substrate ENLYFQR” value is 0.0788, the “area with substrate ENLYFQS” value came out at 0.0978 and the “area with substrate ENLYFQV” value was found to be 0.061. Further, the “area with substrate ENLYFQY” value was 0.0877.

For the variant MGESLDKGPRDYNPISSSICHLTNESDGHTTSLYGIGFGPFIITNKHLFRRNNGTLVVQSLHGVFKVKDTTTLQQHLVDGRDMIIIRMPKDFPPFPQKLKFREPQREERICLVTTNFQTKSMSSMVSDTSCTFPSGDGIFWKHWIQTKDGQCGSPLVSTRDGFIVGIHSASNFTNTNNYFTSVPKNFMELLTNQEAQQWVSGWRLNADSVLWGGHKVFMVKPEEPFQPVKEATQL [F6D], the “area with substrate ENLYFQA” value turned out to be 0.0892, the “area with substrate ENLYFQC” value was determined as 0.0873, the “area with substrate ENLYFQI” value stood at 0.0705 and the “area with substrate ENLYFQK” value was found to be 0.0658. The “area with substrate ENLYFQL” value worked out at 0.0619, the “area with substrate ENLYFQN” value stood at 0.0788, the “area with substrate ENLYFQQ” value was 0.0667 and the “area with substrate ENLYFQS” value turned out to be 0.0909. Further, the “area with substrate ENLYFQT” value was 0.0949 and the “area with substrate ENLYFQW” value was 0.068.

For MGESVFKGPRDYNPISSSICHLTNESDGHTTSLYGIGFGPFIITNKHLFRRNNGTLVVQSLHGVFKVKDTTTLQQHLVDGRDMIIIRMPKDFPPFPQKLKFREPQREERICLVTTNFQTKSMSSMVSDTSCTFPSGDGIFWKHWIQTKDGQCGSPLVSTRDGFIVGIHSASNFTNTNNYFTSVPKNFMELLTNQEAQQWVSGWRLNADSVLWGGHKVFMVKPEEPFQPVKEATQL [L5V], the “area with substrate ENLYFQA” value is 0.124, the “area with substrate ENLYFQD” value is 0.0855, the “area with substrate ENLYFQF” value was 0.0831 and the “area with substrate ENLYFQG” value was 0.0962. Moreover, the “area with substrate ENLYFQK” value was found to be 0.0493, the “area with substrate ENLYFQL” value was 0.0356, the “area with substrate ENLYFQN” value was 0.0637 and the “area with substrate ENLYFQQ” value was determined as 0.0778. The “area with substrate ENLYFQR” value worked out at 0.0544, the “area with substrate ENLYFQS” value was 0.12, the “area with substrate ENLYFQT” value came to 0.0694 and the “area with substrate ENLYFQV” value was determined as 0.0535. Also, the “area with substrate ENLYFQY” value is 0.0998.

On to MGESLFKGPRDYNPISSSICHLTNESDGHTTSLYGIGFGPFIITNKHLFRRNNGTLVVQSLHGVFKVKDTTTLQQHLVDGRDMIIIRMPKDFPPFPQKLKFREPQREERICLVTTNFQTKSMSSMVSDTSCTFPSGDGINWKHWIQTKDGQCGSPLVSTRDGFIVGIHSASNFTNTNNYFTSVPKNFMELLTNQEAQQWVSGWRLNADSVLWGGHKVFMVKPEEPFQPVKEATQL [F140N], for which the “area with substrate ENLYFQA” value was 0.0594, the “area with substrate ENLYFQC” value came out at 0.0605, the “area with substrate ENLYFQF” value amounted to 0.0675 and the “area with substrate ENLYFQH” value came to 0.0555. Besides, the “area with substrate ENLYFQI” value came out at 0.0584, the “area with substrate ENLYFQK” value came to 0.0665, the “area with substrate ENLYFQL” value amounted to 0.0644 and the “area with substrate ENLYFQM” value was determined as 0.0816. The “area with substrate ENLYFQN” value was 0.0512, the “area with substrate ENLYFQP” value was 0.0503, the “area with substrate ENLYFQQ” value was found to be 0.0718 and the “area with substrate ENLYFQR” value was 0.0537. Besides, the “area with substrate ENLYFQS” value is 0.0599, the “area with substrate ENLYFQV” value amounted to 0.0678 and the “area with substrate ENLYFQW” value came out at 0.0532.

MGESLFKGPRDYNPISSSICHLTNESDGHTTSLYGIGFGPFIITNKHLFRRNNGTLVVQSLHGVFKVKDTTTLQQHLVDGRDMIIIRMPKDFPPFPQKLKFREPQREERICLVTTNFQTKSMSSMVSDTSCTFPSGDGIFWKHWIQTKDGQCGSPLVSSRDGFIVGIHSASNFTNTNNYFTSVPKNFMELLTNQEAQQWVSGWRLNADSVLWGGHKVFMVKPEEPFQPVKEATQL [T159S]: the “area with substrate ENLYFQA” value worked out at 0.127, the “area with substrate ENLYFQC” value was 0.115, the “area with substrate ENLYFQE” value worked out at 0.0724 and the “area with substrate ENLYFQG” value came out at 0.115. The “area with substrate ENLYFQH” value came out at 0.0864, the “area with substrate ENLYFQL” value was 0.0668, the “area with substrate ENLYFQM” value turned out to be 0.0903 and the “area with substrate ENLYFQN” value was found to be 0.0906. Besides, the “area with substrate ENLYFQR” value was 0.064, the “area with substrate ENLYFQS” value is 0.0989 and the “area with substrate ENLYFQV” value amounted to 0.0509.

For the variant MGESLFKGPRDYNPISSSICHLTNESDGHTTSLYGIGFGPFIITNKHLFRRNWGTLVVQSLHGVFKVKDTTTLQQHLVDGRDMIIIRMPKDFPPFPQKLKFREPQREERICLVTTNFQTKSMSSMVSDTSCTFPSGDGIFWKHWIQTKDGQCGSPLVSTRDGFIVGIHSASNFTNTNNYFTSVPKNFMELLTNQEAQQWVSGWRLNADSVLWGGHKVFMVKPEEPFQPVKEATQL [N53W], the “area with substrate ENLYFQA” value worked out at 0.0819, the “area with substrate ENLYFQC” value came out at 0.0686, the “area with substrate ENLYFQD” value came to 0.0639 and the “area with substrate ENLYFQF” value turned out to be 0.0529. In addition, the “area with substrate ENLYFQG” value worked out at 0.0721, the “area with substrate ENLYFQH” value amounted to 0.0697, the “area with substrate ENLYFQI” value was 0.0552 and the “area with substrate ENLYFQL” value worked out at 0.0506. Moreover, the “area with substrate ENLYFQN” value was 0.0761, the “area with substrate ENLYFQP” value was 0.0652, the “area with substrate ENLYFQR” value was 0.0589 and the “area with substrate ENLYFQS” value was found to be 0.0852. In addition, the “area with substrate ENLYFQT” value is 0.082 and the “area with substrate ENLYFQW” value is 0.0705.

Consider MGESLFKGPRDYNPISSSICHLTNESDGHTTSLYGIGFGPFIITNKHLFRRNNGTLVVQSLHGVFKVKDTTTLQQHLVDGRDMIIIRMPKDFPPFPQKLKFREPQREERICLVTTNFQTKSMSSMVSDTSCTFPSGDGIFWKHWIQTKDGQCGSPLVSTRDGFIVGIHSASNFTNTNNYFTSVPKNFMELLTNQEAQQWVSGWRLNADSVLWGGHKVFMVKPEEMFQPVKEATQL [P225M], for which the “area with substrate ENLYFQA” value turned out to be 0.0997, the “area with substrate ENLYFQC” value came to 0.102, the “area with substrate ENLYFQD” value was determined as 0.0781 and the “area with substrate ENLYFQG” value stood at 0.118. Also, the “area with substrate ENLYFQH” value came to 0.0645, the “area with substrate ENLYFQI” value was determined as 0.0595, the “area with substrate ENLYFQK” value was 0.0636 and the “area with substrate ENLYFQL” value was found to be 0.0647. Also, the “area with substrate ENLYFQM” value was 0.0791, the “area with substrate ENLYFQN” value was found to be 0.0788, the “area with substrate ENLYFQP” value is 0.0568 and the “area with substrate ENLYFQR” value worked out at 0.0696. Also, the “area with substrate ENLYFQS” value came to 0.0868, the “area with substrate ENLYFQT” value was 0.0675, the “area with substrate ENLYFQV” value came to 0.066 and the “area with substrate ENLYFQW” value amounted to 0.0841. Further, the “area with substrate ENLYFQY” value was determined as 0.0375.
